Experimental data taken from PubChem BioAssay (NCI).
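Tested at 5 concentrations; 48 h exposure; 96-well plates; endpoints linearly interpolated, else capped at highest concentration. GI50 is the concentration that inhibits growth by half.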 The source holds more than one record for some entries. This list holds those alone. There may be further records. Records of one sample usually come from different ranges of test concentrations, which the source does not state; some values may only mark the edge of a range.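 Definition used: TGI = concentration required for complete inhibition of growth.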

Assays:
Assay in all cases: NCI tumour cell line growth inhibition, 48 h
786-0 renal = tested on: 786-0 renal
A498 renal = tested on: A498 renal
A549 NSCLC = tested on: A549 NSCLC
BT-549 breast = tested on: BT-549 breast
CAKI-1 renal = tested on: CAKI-1 renal
CCRF-CEM leukemia = tested on: CCRF-CEM leukemia
COLO 205 colon = tested on: COLO 205 colon
DLD-1 colon = tested on: DLD-1 colon
DMS 114 small cell lung = tested on: DMS 114 small cell lung
DMS 273 small cell lung = tested on: DMS 273 small cell lung
DU-145 prostate = tested on: DU-145 prostate
EKVX NSCLC = tested on: EKVX NSCLC
HCC-2998 colon = tested on: HCC-2998 colon
HCT-116 colon = tested on: HCT-116 colon
HCT-15 colon = tested on: HCT-15 colon
HL-60(TB) leukemia = tested on: HL-60(TB) leukemia
HOP-62 NSCLC = tested on: HOP-62 NSCLC
HOP-92 NSCLC = tested on: HOP-92 NSCLC
HS 578T breast = tested on: HS 578T breast
HT29 colon = tested on: HT29 colon
IGROV1 ovarian = tested on: IGROV1 ovarian
K-562 leukemia = tested on: K-562 leukemia
KM12 colon = tested on: KM12 colon
KM20L2 colon = tested on: KM20L2 colon
LOX IMVI melanoma = tested on: LOX IMVI melanoma
M14 melanoma = tested on: M14 melanoma
M19-MEL melanoma = tested on: M19-MEL melanoma
MALME-3M melanoma = tested on: MALME-3M melanoma
MCF7 breast = tested on: MCF7 breast
MDA-MB-231 breast = tested on: MDA-MB-231 breast
MOLT-4 leukemia = tested on: MOLT-4 leukemia
NCI-H226 lung = tested on: NCI-H226 lung
NCI-H23 lung = tested on: NCI-H23 lung
NCI-H460 lung = tested on: NCI-H460 lung
NCI-H522 lung = tested on: NCI-H522 lung
NCI/ADR-RES ovarian = tested on: NCI/ADR-RES ovarian
OVCAR-3 ovarian = tested on: OVCAR-3 ovarian
OVCAR-4 ovarian = tested on: OVCAR-4 ovarian
OVCAR-5 ovarian = tested on: OVCAR-5 ovarian
OVCAR-8 ovarian = tested on: OVCAR-8 ovarian
P388 leukemia = tested on: P388 leukemia
PC-3 prostate = tested on: PC-3 prostate
RPMI-8226 leukemia = tested on: RPMI-8226 leukemia
RXF 393 renal = tested on: RXF 393 renal
SF-268 CNS = tested on: SF-268 CNS
SF-295 CNS = tested on: SF-295 CNS
SF-539 CNS = tested on: SF-539 CNS
SK-MEL-2 melanoma = tested on: SK-MEL-2 melanoma
SK-MEL-28 melanoma = tested on: SK-MEL-28 melanoma
SK-MEL-5 melanoma = tested on: SK-MEL-5 melanoma
SK-OV-3 ovarian = tested on: SK-OV-3 ovarian
SN12C renal = tested on: SN12C renal
SN12K1 renal = tested on: SN12K1 renal
SNB-19 CNS = tested on: SNB-19 CNS
SNB-75 CNS = tested on: SNB-75 CNS
SNB-78 CNS = tested on: SNB-78 CNS
SW-620 colon = tested on: SW-620 colon
U251 CNS = tested on: U251 CNS
UACC-257 melanoma = tested on: UACC-257 melanoma
UACC-62 melanoma = tested on: UACC-62 melanoma
UO-31 renal = tested on: UO-31 renal
XF 498 CNS = tested on: XF 498 CNS

For `COc1cc2cc(c1Cl)N(C)C(=O)C[C@H](OC(=O)[C@H](C)N(C)C(C)=O)[C@]1(C)O[C@H]1[C@H](C)[C@@H]1C[C@@](O)(NC(=O)O1)[C@H](OC)C=C/C=C(\C)C2`, the TGI (786-0 renal) was 92.2 nM and 57.8 µM, the TGI (A498 renal) was 0.0464, 40, 222, 398 nM and the TGI (A549 NSCLC) was 2.5 nM, 62.8 nM, 56.7 µM. The TGI (BT-549 breast) was 52.6 nM and 28.2 µM, the TGI (CAKI-1 renal) was 2.5 nM [1 test] and 5.25 µM [mean of 12 tests] and 55.4 nM, 9.69 µM [mean of 7 tests] and the TGI (CCRF-CEM leukemia) was 0.000555 nM, 28.6 nM, 29.2 µM, 12.5 µM. The TGI (COLO 205 colon) was 0.0145, 2.5, 7.45, 46.3, 88.3 nM, the TGI (DLD-1 colon) was 2.5 nM, > 97.7 µM, 97.4 µM and the TGI (DMS 114 small cell lung) was 0.0145, 0.542, 149, 62 nM. The TGI (DMS 273 small cell lung) was 0.0506 nM, 2.5 nM, 306 nM, 2.19 µM, the TGI (DU-145 prostate) was 47.7 nM and 3.95 µM and the TGI (EKVX NSCLC) was 49.1 nM, > 92.3 µM, 45.5 µM. For the same compound, the TGI (HCC-2998 colon) was 0.0131, 14.1, 66.9, 182 nM, the TGI (HCT-116 colon) was 2.5 nM, 19.2 nM, 189 nM, 3.72 µM and the TGI (HCT-15 colon) was 49 nM, 3.69 µM, 21.4 µM. For the same compound, the TGI (HL-60(TB) leukemia) was 0.00101, 0.000363, 63.3, 235, 231 nM, the TGI (HOP-62 NSCLC) was 0.0151 nM, 2.5 nM, 43.4 nM, 6.26 µM, 43.3 µM and the TGI (HOP-92 NSCLC) was 0.718 nM, 33.1 nM, 5.81 µM, 506 nM. For the same compound, the TGI (HS 578T breast) was 44.9 nM and 10.9 µM, the TGI (HT29 colon) was 2.16 nM, 30.2 nM [1 test] and 50.8 nM [mean of 10 tests] and 0.0391 nM, 61.4 nM [mean of 5 tests] and the TGI (IGROV1 ovarian) was 15.8 nM, 42 µM, 84.3 µM. For the same compound, the TGI (K-562 leukemia) was 0.658 nM, 0.286 nM, 28.6 nM, 66.7 µM, 180 µM, the TGI (KM12 colon) was 0.109 nM [mean of 4 tests] and 51.7 nM, 1.44 µM [mean of 7 tests] and 3.87 µM [mean of 9 tests] and the TGI (KM20L2 colon) was 2.5 nM [1 test] and 0.000891 nM [mean of 5 tests] and < 16.2 nM [mean of 6 tests]. For the same compound, the TGI (LOX IMVI melanoma) was 2.5 nM, 15.7 nM, 32.3 µM, 51.4 µM, the TGI (M14 melanoma) was 14.7 nM and 8.82 µM and the TGI (M19-MEL melanoma) was 2.5 nM, 80.9 µM, 187 µM. For the same compound, the TGI (MALME-3M melanoma) was 0.776 nM, 42.2 nM, 17.7 µM, 38.7 µM, the TGI (MCF7 breast) was 2.5 nM, 57.5 nM, 91.9 µM, 15.3 µM and the GI50 (MDA-MB-231 breast) was 0.555 nM and 95.9 nM. The TGI (MDA-MB-231 breast) was 10.9 nM and 8.06 µM, the TGI (MOLT-4 leukemia) was 0.631 nM, 0.000538 nM, 46.5 nM, 51.4 µM, 4.6 µM and the TGI (NCI-H226 lung) was 0.00273, 47.6, 331, 32.9 nM. The TGI (NCI-H23 lung) was 0.0844 nM, 0.108 nM, 21.1 nM, 1.79 µM, 3.46 µM, the TGI (NCI-H460 lung) was 0.773, 2.5, 24, 560, 835 nM and the TGI (NCI-H522 lung) was 0.000996 nM [1 test] and 77.8 nM [mean of 11 tests] and 78.4 nM [mean of 6 tests] and 3.18 nM [mean of 7 tests]. The TGI (NCI/ADR-RES ovarian) was 58.9 nM, 244 nM [mean of 7 tests] and 7.93 µM [mean of 8 tests], the TGI (OVCAR-3 ovarian) was 2.5 nM [1 test] and 0.000117 nM [mean of 3 tests] and 116 nM [mean of 6 tests] and 11.3 nM [mean of 7 tests] and 99.5 nM [mean of 8 tests] and the TGI (OVCAR-4 ovarian) was 57 nM and 250 µM. For the same compound, the TGI (OVCAR-5 ovarian) was 83.3 nM, > 46.4 µM, 238 µM, the TGI (OVCAR-8 ovarian) was 0.675 nM, 2.5 nM, 45.1 nM, 1.35 µM, 4.61 µM and the TGI (P388 leukemia) was 0.0111 nM, 0.00357 nM, 1.02 µM, 640 nM. For the same compound, the TGI (PC-3 prostate) was 44.9 nM and 2.81 µM, the TGI (RPMI-8226 leukemia) was 0.00113 nM [1 test] and 21.8 µM [mean of 10 tests] and 64.7 µM [mean of 12 tests] and 31.7 nM [mean of 5 tests] and the TGI (RXF 393 renal) was 0.0133 nM, 0.0429 nM, 59.6 nM, 4.67 µM, 2.6 µM. The TGI (SF-268 CNS) was 29.6 nM, 28.6 µM, 88.8 µM, the TGI (SF-295 CNS) was 2.5 nM [1 test] and 217 nM [mean of 12 tests] and 0.00269 nM, 890 nM [mean of 5 tests] and 26.3 nM [mean of 6 tests] and the TGI (SF-539 CNS) was 0.0505 nM [1 test] and 34.9 nM [mean of 10 tests] and 33.4 nM [mean of 13 tests] and 0.000819 nM, 12.5 nM [mean of 5 tests]. For the same compound, the TGI (SK-MEL-2 melanoma) was 10.6 µM [mean of 11 tests] and 0.0655 nM [mean of 3 tests] and 2.5 µM [mean of 4 tests] and 55 nM [mean of 6 tests], the TGI (SK-MEL-28 melanoma) was 95.9 nM, 99.3 µM, 140 µM and the TGI (SK-MEL-5 melanoma) was 0.713, 2.5, 3.92, 157, 381 nM. The TGI (SK-OV-3 ovarian) was 9.87 µM [mean of 11 tests] and 44.7 nM [mean of 5 tests] and 18.5 µM [mean of 8 tests], the TGI (SN12C renal) was 1.65 nM, 13.8 nM, 49.2 µM, 85.4 µM and the TGI (SN12K1 renal) was 0.000856 nM, 2.5 nM, 84.6 nM. For the same compound, the TGI (SNB-19 CNS) was 0.668 nM, 61.9 nM, 8.38 µM, 17.6 µM, the TGI (SNB-75 CNS) was 50.7 nM [mean of 3 tests] and 128 µM [mean of 6 tests] and 14.2 µM [mean of 9 tests] and the TGI (SNB-78 CNS) was 1.41 nM, 40.9 µM, 20.8 µM. The TGI (SW-620 colon) was 49.7 nM, 57.9 µM, 110 µM, the TGI (U251 CNS) was 0.0783 nM, 50.5 nM, 661 nM, 5.06 µM and the TGI (UACC-257 melanoma) was 48.8 nM, > 98.1 µM, 196 µM. For the same compound, the TGI (UACC-62 melanoma) was 2.09 nM, 46.1 µM, 71.9 µM, the TGI (UO-31 renal) was 250 µM [mean of 5 tests] and 58.7 nM [mean of 6 tests] and the TGI (XF 498 CNS) was 0.00358 nM, 413 nM, 590 nM.
